# Data as given in paper PMC12136788.
# The other results are listed elsewhere or left out.
# B1: chr15:101302471:101305355:-|three_prime_utr|ENSG00000140479|control|control|control (ssRNA)
# RNA: GGGAGUUCUACAGUCCGACGAUCACGGAAGCUCUUCAUUCAGUUCUGCUGCCGCACGUGCCUCCUGGCCGGGUAAGGGUGCCUAGCUGCCCACAGAGGGCAGGCACUCCCAUCCAUCCAUCCGUCCACCUUCCUCCAGACUGUCAACAGAGGAUUGAGCAUCA
# B2: chr22:41636480:41636706:+|CDS|ENSG00000196419|unk|total|mutant (ssRNA)
# RNA: GGGAGUUCUACAGUCCGACGAUCAUGGGCCACGGAUCUGACUACUCACUCAGUGAAGUGCUGUGGGUCUGUGCCAACCUCUUCCGUGAUGUCCAAUUCAAGAUGAGUCAUAAGAGGAUCAUGCUGUUCACCAAUGAAGACAACCAACAGAGGAUUGAGCAUCA
# B3: chr14:69053859:69055611:-|CDS|ENSG00000139990|control|control|control (ssRNA)
# RNA: GGGAGUUCUACAGUCCGACGAUCUGUGAGACCCCCAAUGCUGGAACAAGAGAGGACCCCACUGACACCCCAGCCACAGAUAGUAGCAGGGCUGUUCAUGGCCACAGUGGCCUCAAAAGGCAACGAAUUGAAUUGGAAGAUACACAACAGAGGAUUGAGCAUCA
# B4: chr15:69271217:69271318:+|3pUTR|ENSG00000138604|msi1|total|mutant (ssRNA)
# RNA: GGGAGUUCUACAGUCCGACGAUCGCAACAGCAAGUUGAUUUCUUGUGAUCCCAGAAUUUUCUAAGAGGAUGAGUUGAAUCUACCGCAGCAUUGUCAGUACAGACCAGUGGUUCUCAAACUUUAAAAUGCCUCAGCAUCACUUGCAACAGAGGAUUGAGCAUCA
# B5: chr1:154584646:154584747:-|3pUTR|ENSG00000160710|unk|total|mutant (ssRNA)
# RNA: GGGAGUUCUACAGUCCGACGAUCAUGCUCCAGUGACAGAUGGAUCCGGGUGUGUCAUACCCGGGUGUGAGAGAGGCCGGUCGCCGCAUUCCUCAUCACAUGGUCAGGGGAUUUUUUUUUCUCCUUUUUUUUUCUUUUUAAGCCCAACAGAGGAUUGAGCAUCA
# B6: chr6:35869508:35869609:-|CDS|ENSG00000096063|unk|FALSE|unique (ssRNA)
# RNA: GGGAGUUCUACAGUCCGACGAUCGACACCAUGGUGUGCCAGUCUUCCUCAACUGUAGGUCAGUCAUUCAGUGAACAACACAUUAGCCAACUUCAAGAAAGCAUUCGGGCAGAGAUACCCUGUGAAGAUGAACAAGAGCAAGAACAACAGAGGAUUGAGCAUCA
# Molecular target: MSI1 full-length (mouse, UniProt Q61474 1-362)
# Assay: nsRBNS (natural sequence RNA bind-n-seq); RBNS binding buffer (assumed for nsRBNS): 25 mM Tris pH 7.5, 150 mM KCl, 3 mM MgCl2, 0.01% Triton X-100, 500 ug/ml BSA, 20 U/ml SUPERase-In, 4 C; UNK is unkempt and MSI1 is Musashi-1; names of the RNAs are library labels; protein concentration not given here; high values mean tight binding
# UniProt Q61474, sequence (Q61474 whole entry): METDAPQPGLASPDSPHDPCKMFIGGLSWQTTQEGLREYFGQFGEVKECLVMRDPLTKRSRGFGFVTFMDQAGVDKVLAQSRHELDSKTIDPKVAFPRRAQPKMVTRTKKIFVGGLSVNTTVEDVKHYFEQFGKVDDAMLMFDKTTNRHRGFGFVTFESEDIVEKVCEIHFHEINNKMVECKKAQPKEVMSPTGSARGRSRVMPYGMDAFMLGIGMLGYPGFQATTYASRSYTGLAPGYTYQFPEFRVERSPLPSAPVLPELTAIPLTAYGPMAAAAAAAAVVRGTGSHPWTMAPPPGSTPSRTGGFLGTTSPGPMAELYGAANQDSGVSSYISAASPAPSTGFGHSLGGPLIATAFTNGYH
row,Binder,binding signal [enrichment R]
1,B1,0.558
2,B2,0.362
3,B3,0.764
4,B4,0.318
5,B5,0.712
6,B6,0.39
